{"source": "paper PMC4336329", "about": "(PLoS ONE, 2015)", "note": "Among all 310,000 compounds or so, about 14,000 (4.5%) showed an effect of 50% or more. Effects have a minus sign here. Some of the results follow.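 Note: peak tail current of the secondary pulse compared with the same well before compound.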", "data": [{"target": "human ether-à-go-go-related gene (hERG) potassium channel (human, UniProt Q12809)", "sequence (Q12809 whole entry, looked up)": "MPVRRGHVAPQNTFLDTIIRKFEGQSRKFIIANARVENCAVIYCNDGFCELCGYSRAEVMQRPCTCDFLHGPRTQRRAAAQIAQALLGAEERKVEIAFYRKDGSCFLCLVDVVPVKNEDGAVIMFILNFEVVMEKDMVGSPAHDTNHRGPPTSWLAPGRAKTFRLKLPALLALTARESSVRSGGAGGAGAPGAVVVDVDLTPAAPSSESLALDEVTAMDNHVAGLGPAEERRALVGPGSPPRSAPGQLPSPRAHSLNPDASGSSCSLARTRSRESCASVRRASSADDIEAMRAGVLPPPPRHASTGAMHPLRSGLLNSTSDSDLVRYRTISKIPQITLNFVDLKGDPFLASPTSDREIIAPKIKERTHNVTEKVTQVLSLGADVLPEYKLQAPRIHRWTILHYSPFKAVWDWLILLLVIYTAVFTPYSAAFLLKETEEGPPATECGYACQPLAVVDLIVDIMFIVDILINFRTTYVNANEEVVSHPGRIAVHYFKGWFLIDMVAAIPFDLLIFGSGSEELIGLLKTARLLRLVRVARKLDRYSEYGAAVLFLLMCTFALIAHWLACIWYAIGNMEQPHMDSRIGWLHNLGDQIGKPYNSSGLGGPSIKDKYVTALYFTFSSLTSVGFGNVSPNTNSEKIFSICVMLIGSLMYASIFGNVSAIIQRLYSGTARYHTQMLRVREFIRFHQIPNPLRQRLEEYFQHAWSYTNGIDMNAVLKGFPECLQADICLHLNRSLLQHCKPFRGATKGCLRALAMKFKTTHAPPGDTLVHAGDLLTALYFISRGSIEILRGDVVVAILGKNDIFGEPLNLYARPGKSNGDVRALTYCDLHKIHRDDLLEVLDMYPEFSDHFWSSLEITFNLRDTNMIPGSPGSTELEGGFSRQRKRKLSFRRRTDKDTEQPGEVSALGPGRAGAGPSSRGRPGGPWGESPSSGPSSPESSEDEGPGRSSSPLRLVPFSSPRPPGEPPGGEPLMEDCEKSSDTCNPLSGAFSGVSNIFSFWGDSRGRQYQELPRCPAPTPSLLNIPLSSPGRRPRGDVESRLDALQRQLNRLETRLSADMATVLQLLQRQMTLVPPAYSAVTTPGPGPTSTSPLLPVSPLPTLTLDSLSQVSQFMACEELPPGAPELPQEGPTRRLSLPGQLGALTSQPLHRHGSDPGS", "assay": "primary screen, population patch clamp on CHO cells stably expressing hERG", "units": {"hERG current change (%, negative = inhibition) at 10uM": "%"}, "values": [{"compound": "COCCNc1nc2c(S(=O)(=O)c3cc(C)ccc3C)nnn2c2ccccc12", "hERG current change (%, negative = inhibition) at 10uM": 19.1}, {"compound": "COCCNS(=O)(=O)c1ccc2c(c1)n(C)c(=O)n2C", "hERG current change (%, negative = inhibition) at 10uM": -4.37}, {"compound": "CS(=O)(=O)N(CC(=O)N1CCc2ccccc2C1)c1ccc(Br)cc1", "hERG current change (%, negative = inhibition) at 10uM": -30}, {"compound": "O=C(NCCCn1ccnc1)c1cc(-c2cccnc2)nc2ccc(Br)cc12", "hERG current change (%, negative = inhibition) at 10uM": -45.1}, {"compound": "O=C(CS(=O)(=O)c1ccccc1)Nc1nc(-c2ccc(F)cc2)cs1", "hERG current change (%, negative = inhibition) at 10uM": 16.6}, {"compound": "C=CCOCCN(CC)CC", "hERG current change (%, negative = inhibition) at 10uM": -21.3}, {"compound": "Cc1cnc(NC(=O)Nc2ccc(OCc3ccccc3)cc2)c(Br)c1", "hERG current change (%, negative = inhibition) at 10uM": 19.7}, {"compound": "O=C(N/N=C/c1ccccn1)c1[nH]c2ccc([N+](=O)[O-])cc2c1-c1ccccc1", "hERG current change (%, negative = inhibition) at 10uM": 54.2}, {"compound": "O=C(Nc1ccnn1C1CCN(Cc2ccccc2OC(F)F)CC1)c1cccc(F)c1", "hERG current change (%, negative = inhibition) at 10uM": -52.4}, {"compound": "CCCCCn1c(CN2CCN(c3cccc(Cl)c3)CC2)nc2c1c(=O)[nH]c(=O)n2C", "hERG current change (%, negative = inhibition) at 10uM": -63.3}, {"compound": "CC1CCCCN1CCCNC(=O)CN1C(=O)c2cccnc2Oc2ccccc21", "note": "(stereo not shown)", "hERG current change (%, negative = inhibition) at 10uM": 18.5}, {"compound": "O=C(NC1C=CS(=O)(=O)C1)c1ccccc1", "note": "(stereo not shown)", "hERG current change (%, negative = inhibition) at 10uM": 23.1}, {"compound": "Cc1ccc(OCC(=O)Nc2cccc(S(=O)(=O)N3CCCCC3)c2)c([N+](=O)[O-])n1", "hERG current change (%, negative = inhibition) at 10uM": -7.51}, {"compound": "COc1ccc(-c2ccccc2)cc1NCc1ccccc1C", "hERG current change (%, negative = inhibition) at 10uM": 10.1}, {"compound": "O=[N+]([O-])c1ccc(NCCCN2CCOCC2)c([N+](=O)[O-])c1", "hERG current change (%, negative = inhibition) at 10uM": -45.7}, {"compound": "CC1=NNC(=O)C1CC(=O)N/N=C(/C)c1cccc([N+](=O)[O-])c1", "note": "(stereo not shown)", "hERG current change (%, negative = inhibition) at 10uM": -39.2}, {"compound": "C=CCNC(=S)Nc1ccc(F)cc1F", "hERG current change (%, negative = inhibition) at 10uM": 18.2}, {"compound": "CCCCCn1cnc2c(sc3nc4c(cc32)CSC(C)(C)C4)c1=O", "hERG current change (%, negative = inhibition) at 10uM": -14.5}, {"compound": "O=C(NCc1ccccn1)c1ccc(Cn2cc(C(F)(F)F)ccc2=O)cc1", "hERG current change (%, negative = inhibition) at 10uM": 14.6}, {"compound": "O=C(N/N=C/c1ccc(COc2ccc(Br)cc2)o1)c1ccco1", "hERG current change (%, negative = inhibition) at 10uM": 2.73}, {"compound": "COc1ccccc1NC(=O)c1ccc2c(c1)C(=O)N(c1ccccc1OC)C2=O", "hERG current change (%, negative = inhibition) at 10uM": 5.55}, {"compound": "COc1ccc(NC(=O)CSc2nc(O)cc(=O)n2-c2ccc(OC)cc2)cc1", "hERG current change (%, negative = inhibition) at 10uM": 11.7}, {"compound": "O=C(NCCN1CCOCC1)c1ccc(CS(=O)(=O)Cc2ccccc2F)o1", "hERG current change (%, negative = inhibition) at 10uM": -1.63}, {"compound": "O=C(CSc1n[nH]c(-c2cccnc2)n1)Nc1cccc(Cl)c1", "hERG current change (%, negative = inhibition) at 10uM": 0.151}, {"compound": "O=C(c1c(F)cccc1F)N1CCN=C1SCc1ccccc1", "hERG current change (%, negative = inhibition) at 10uM": -3.14}, {"compound": "Cc1ccc(S(=O)(=O)Nc2ccc3c(c2)nc(C)n3C)cc1", "hERG current change (%, negative = inhibition) at 10uM": -3.73}, {"compound": "COc1cc(S(=O)(=O)Nc2ccc(C(=O)NCC(=O)O)cc2)ccc1NC(C)=O", "hERG current change (%, negative = inhibition) at 10uM": 14.1}, {"compound": "COCCCn1c(SCC(=O)OC2CCCCC2)nnc1-c1cccs1", "hERG current change (%, negative = inhibition) at 10uM": -34.4}, {"compound": "COc1ccc2oc(=O)c(C(=O)NC(C)c3ccccc3)cc2c1", "note": "(stereo not shown)", "hERG current change (%, negative = inhibition) at 10uM": -20.1}, {"compound": "COc1ccc(C(=O)NNC(=O)C(=O)N2CCCCC2)cc1OC", "hERG current change (%, negative = inhibition) at 10uM": 59.5}, {"compound": "Cc1cccc(C)c1OCc1cc(C(=O)NCC2CCCCC2)no1", "hERG current change (%, negative = inhibition) at 10uM": 21.3}, {"compound": "CCOc1ccc2oc(=O)cc(CN3CCOCC3)c2c1", "hERG current change (%, negative = inhibition) at 10uM": -1.8}, {"compound": "CCc1cccc2c(C(=O)CN3C(=O)NC(C)(c4cccc5ccccc45)C3=O)c[nH]c12", "note": "(stereo not shown)", "hERG current change (%, negative = inhibition) at 10uM": 37.8}, {"compound": "O=C(NC1CCCN(Cc2ccc(Cl)cc2)C1)c1ccnc(Cl)c1", "note": "(stereo not shown)", "hERG current change (%, negative = inhibition) at 10uM": -38.6}, {"compound": "N#Cc1nc(-c2ccccc2Cl)oc1N1CCOCC1", "hERG current change (%, negative = inhibition) at 10uM": -4.51}, {"compound": "CCCCOc1ccccc1N", "hERG current change (%, negative = inhibition) at 10uM": 21.8}, {"compound": "Cc1cccc(C)c1NC(=O)c1cc(S(=O)(=O)N2CCc3ccccc32)cn1C", "hERG current change (%, negative = inhibition) at 10uM": -1.49}, {"compound": "COc1ccc(Cl)cc1NC(=O)CSc1ncnc2c1oc1ccccc12", "hERG current change (%, negative = inhibition) at 10uM": 22.9}, {"compound": "Cc1c(C(=O)NCCc2ccccc2)oc2ccc(S(=O)(=O)N3CCOCC3)cc12", "hERG current change (%, negative = inhibition) at 10uM": -19.1}, {"compound": "COCC(C)NC(C(=O)Nc1ccc(C)c(Cl)c1)c1ccccc1", "note": "(stereo not shown)", "hERG current change (%, negative = inhibition) at 10uM": -31.3}, {"compound": "COc1ccccc1NC(C)C(=O)N/N=C/c1cccs1", "note": "(stereo not shown)", "hERG current change (%, negative = inhibition) at 10uM": 8.58}, {"compound": "COc1ccc(NS(=O)(=O)c2ccc(NC(=O)c3ccccn3)cc2)cc1", "hERG current change (%, negative = inhibition) at 10uM": 6.27}, {"compound": "CN1N=C(C(F)(F)F)CC1=O", "hERG current change (%, negative = inhibition) at 10uM": -1.21}, {"compound": "O=C(Cn1cnc(Cl)c1Cl)c1ccccc1", "hERG current change (%, negative = inhibition) at 10uM": 11.6}, {"compound": "CC(C)c1ccccc1NCC(=O)N1CCN(Cc2ccccc2)CC1.Cl", "hERG current change (%, negative = inhibition) at 10uM": -8.94}, {"compound": "COCCCNCCCOc1ccc(Cl)cc1Br", "hERG current change (%, negative = inhibition) at 10uM": -39.2}, {"compound": "CCCN1CCC(N2CCN(c3ccc([N+](=O)[O-])cc3)CC2)CC1", "hERG current change (%, negative = inhibition) at 10uM": -74.3}, {"compound": "O=C(c1csc2ccccc12)n1cccn1", "hERG current change (%, negative = inhibition) at 10uM": 27.3}, {"compound": "O=C(Nc1ccc(N2CCOCC2)cc1)c1cccc(S(=O)(=O)N2CCC(Cc3ccccc3)CC2)c1", "hERG current change (%, negative = inhibition) at 10uM": 2.84}, {"compound": "O=C(NCCSCc1c(F)cccc1Cl)c1ccco1", "hERG current change (%, negative = inhibition) at 10uM": -27.5}, {"compound": "CCN(CC)C(=O)COc1ccc(/C=C(\\C#N)S(=O)(=O)c2ccccc2)cc1OC", "hERG current change (%, negative = inhibition) at 10uM": -21}, {"compound": "CC(CCOS(N)(=O)=O)c1ccccc1", "note": "(stereo not shown)", "hERG current change (%, negative = inhibition) at 10uM": 8.14}, {"compound": "O=C(NC(=S)NCCCN1CCOCC1)c1ccco1", "hERG current change (%, negative = inhibition) at 10uM": -4.11}, {"compound": "COc1ccc(NC(=S)NNc2ccc(S(=O)(=O)Nc3ccccc3C(=O)O)cc2[N+](=O)[O-])cc1", "hERG current change (%, negative = inhibition) at 10uM": 13.7}, {"compound": "COc1cccc(-c2cc3nc(-c4ccccc4)cc(=O)n3[nH]2)c1", "hERG current change (%, negative = inhibition) at 10uM": -1.31}, {"compound": "CCCCC(=O)Nc1sc2c(c1C(=O)OCC)CCC(C=O)=C2Cl", "hERG current change (%, negative = inhibition) at 10uM": 10.7}, {"compound": "O=C(Nc1ccc(Cl)c(Cl)c1)N1CCCCCC1", "hERG current change (%, negative = inhibition) at 10uM": 2.82}, {"compound": "S=C(Nc1ccccc1)N(Cc1ccccc1)Cc1ccncc1", "hERG current change (%, negative = inhibition) at 10uM": -46.6}]}]}
